The whole screen tested about 310,000 compounds, of which about 2,200 (0.71%) showed an effect of 50% or more. The effect is printed as a negative number. The list shows a part of the results.
molecular target: human ether-à-go-go-related gene (hERG) potassium channel (human, UniProt Q12809); assay: primary screen, population patch clamp on CHO cells stably expressing hERG
Sequence (Q12809 whole entry, looked up): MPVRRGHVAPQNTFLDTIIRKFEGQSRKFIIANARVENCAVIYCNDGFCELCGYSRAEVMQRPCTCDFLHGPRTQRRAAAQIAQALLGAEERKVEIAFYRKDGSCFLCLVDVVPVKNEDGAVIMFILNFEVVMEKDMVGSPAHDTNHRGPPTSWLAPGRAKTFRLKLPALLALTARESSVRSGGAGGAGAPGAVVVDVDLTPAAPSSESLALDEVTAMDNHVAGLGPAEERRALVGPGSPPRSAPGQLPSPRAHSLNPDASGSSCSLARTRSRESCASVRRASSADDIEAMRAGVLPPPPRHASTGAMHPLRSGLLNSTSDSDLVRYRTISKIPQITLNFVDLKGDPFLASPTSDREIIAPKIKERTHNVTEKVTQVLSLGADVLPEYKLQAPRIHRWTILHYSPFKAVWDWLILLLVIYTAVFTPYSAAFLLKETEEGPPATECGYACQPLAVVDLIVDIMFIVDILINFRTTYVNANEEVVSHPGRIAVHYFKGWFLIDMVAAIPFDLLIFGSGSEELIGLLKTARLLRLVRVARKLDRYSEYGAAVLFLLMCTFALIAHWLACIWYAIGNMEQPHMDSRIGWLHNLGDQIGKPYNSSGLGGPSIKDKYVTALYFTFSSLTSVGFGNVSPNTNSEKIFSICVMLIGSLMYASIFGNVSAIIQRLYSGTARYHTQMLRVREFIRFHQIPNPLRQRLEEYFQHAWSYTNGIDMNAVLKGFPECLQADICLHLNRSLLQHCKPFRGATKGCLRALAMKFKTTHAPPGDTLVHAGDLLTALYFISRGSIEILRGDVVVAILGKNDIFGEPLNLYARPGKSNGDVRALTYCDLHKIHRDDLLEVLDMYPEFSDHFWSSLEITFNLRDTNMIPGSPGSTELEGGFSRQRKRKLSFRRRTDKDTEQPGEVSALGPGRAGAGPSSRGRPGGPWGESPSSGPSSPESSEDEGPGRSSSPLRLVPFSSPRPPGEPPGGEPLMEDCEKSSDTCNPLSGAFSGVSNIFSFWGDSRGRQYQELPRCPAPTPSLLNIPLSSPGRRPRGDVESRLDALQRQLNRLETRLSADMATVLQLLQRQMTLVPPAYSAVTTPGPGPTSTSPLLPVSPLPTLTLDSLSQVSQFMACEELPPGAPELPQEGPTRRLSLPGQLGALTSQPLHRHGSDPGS

Structure (SMILES)	hERG current change (%, negative = inhibition) at 1uM [%]
NC(=O)CC(NC(=O)c1cccc(Br)c1)c1ccc(N2CCCCCC2)c([N+](=O)[O-])c1 (centres unmarked)	-1.98
Cc1ccc2[nH]c(=O)c(CN(CCO)Cc3nnnn3CCc3ccccc3)cc2c1	3.95
Cc1ccc2c(c1)C(c1ccc(O)cc1)(c1ccc(O)cc1)C(=O)N2C	16
COc1ccc(C2/C(=C(\O)c3ccc4c(c3)OCCO4)C(=O)C(=O)N2CCCN(C)C)cc1 (centres unmarked)	14.9
O=C(CCNC(=O)c1ccc(Br)cc1)NC1CCCc2ccccc21 (centres unmarked)	5.53
COC(=O)c1c(-c2ccccc2)nn(-c2ccccc2)c1C(=O)OC	17.4
CCCC(C)C1C(C#N)=C(N)Oc2c1c(=O)oc1ccccc21 (centres unmarked)	-1.25
O=C1C(=O)c2c(C(=O)c3ccccc3)coc2-c2ccccc21	2.45
COCCN1CCn2c(nc3cc(NC(=O)c4ccc(OC)cc4)ccc32)C1	-0.405
NS(=O)(=O)c1cccc(NC(=O)C2CC(=O)N(Cc3ccco3)C2)c1 (centres unmarked)	9.06
Cn1nc(C(F)(F)F)c(/C=N/OC(=O)c2ccc(Cl)cc2)c1Cl	14.3
Cc1cc(-c2nc3cccnc3s2)ccc1NS(=O)(=O)c1cccs1	15.4
CCCCNC(=O)CCn1c(=O)c2ccccc2n(CC(=O)NCCc2ccc(OC)c(OC)c2)c1=O	6.51
O=C(CSc1nc2ccccc2s1)c1ccc(O)cc1O	9.22
O=C(CN1CCN(S(=O)(=O)c2ccc(Cl)cc2)CC1)NCc1cccs1	-10.3
CCCc1[nH]n(-c2ccc([N+](=O)[O-])cc2)c(=O)c1C=NCCN1CCNCC1	-9.24
Cc1ccc(S(=O)(=O)N2CC(C(=O)O)Oc3ccccc32)cc1 (centres unmarked)	3.24
COc1ccccc1NC(=O)c1ccc(S(=O)(=O)N2CCCC2)cc1	-0.878
CCCCOc1ccc(NC(=O)Cn2c(=O)ccc3c(C)cc(C)nc32)cc1	11.1
Cc1ccc(C(=O)N/C(=C\c2ccccc2)C(=O)OCc2ccccc2)cc1	0.151
COc1ccc(NC(=S)NCc2cccn2C)cc1	1.19
Cc1cc(NC(=O)c2ccc(S(=O)(=O)N3CCOCC3)cc2)no1	9.09

Structure (SMILES)	hERG current change (%, negative = inhibition) at 1uM [%]
CCNc1nc(NCC)nc(SCCOC(=O)COc2ccc(Cl)cc2Cl)n1	13.1
Cc1ccc(S(=O)(=O)N2c3ccccc3-c3c(ssc3=S)C2(C)C)cc1	-1.68
CCCCc1ncc(CN2CCC(n3nccc3NC(=O)C(OC)c3ccccc3)CC2)[nH]1 (centres unmarked)	6.27
CCCCP(=O)(O)CCC(=O)O	5.79
Cc1cc(CC(=O)O)c2oc(-c3ccoc3)cc(=O)c2c1	15.1
O=C(/C=C/Nc1ccc(Oc2ccccc2)cc1)c1ccco1	12
CCCC(=O)Nc1ccc(C(=O)N/N=C2\CC(=O)CC(C)(C)C2)cc1	-17
CC(=O)Nc1ccc2nc(NC(=O)COc3ccccc3Cl)sc2c1	8.74
Cn1ccnc1SCC(=O)NC1CC1	3.59
COc1cccc(-c2cc(C(=O)NN3CCOCC3)c3ccccc3n2)c1	-8.96
CC(=O)Nc1ccc(C(=O)N/C(=C/c2ccccc2)C(=O)N2CCCCC2)cc1	11.2
Cc1ccc(N(CC(=O)NCc2ccccc2)S(=O)(=O)c2c(C)noc2C)cc1	12.5
CCc1ccc(-c2cc(-c3n[nH]c(=S)n3CC)c3ccccc3n2)cc1	3.58
Cc1ccc(CN=Cc2[nH]c3ccc(Br)c(Cl)c3c2O)cc1	4.8
COc1ccc2c(c1)CCCC21NC(=O)N(CC(=O)NC(=O)NCc2ccccc2)C1=O (centres unmarked)	6.62
CCOc1ccc([C@@H]2CC=C(C(=O)O)[C@H](c3ccc(F)cc3)N2S(=O)(=O)c2ccc(C)cc2)cc1	17.1
COC(=O)c1ccc2c(=O)n(CCN3CCOCC3)c(=S)[nH]c2c1	-6.87
NS(=O)(=O)c1ccc(NC(=S)NCc2ccco2)cc1	9.92
CCOc1c(Br)cc(CNc2ccc(N3CCOCC3)cc2)cc1OC	22.4
CCC1(CC)Cc2ccccc2-c2nc(-c3ccccc3)oc(=O)c21	1.97
Cc1cccc(C)c1OCc1nc2ccccc2c(=O)n1/N=C/c1ccc(OCC(=O)O)cc1	14.7
CN(CC(=O)Nc1ccc(Cl)c(C(F)(F)F)c1)C(=O)c1cccc(N2C(=O)CCC2=O)c1	3.45

From PMC4336329 (PLoS ONE, 2015)
